Test results published in the supplement of paper PMC12217912.
The list shows a part of the results. Sequences were assembled here from the parent chain. Inactive controls read about 0.05.

B1: TEV protease; numbered along this chain (parent)
chain: MGESLFKGPRDYNPISSSICHLTNESDGHTTSLYGIGFGPFIITNKHLFRRNNGTLVVQSLHGVFKVKDTTTLQQHLVDGRDMIIIRMPKDFPPFPQKLKFREPQREERICLVTTNFQTKSMSSMVSDTSCTFPSGDGIFWKHWIQTKDGQCGSPLVSTRDGFIVGIHSASNFTNTNNYFTSVPKNFMELLTNQEAQQWVSGWRLNADSVLWGGHKVFMVKPEEPFQPVKEATQL

Variants of: B1
Assay: raw area under fraction-flipped curve 0-4 h after induction (AUC4h, not background-subtracted), DNA-recorder readout of cleavage of the substrate (dimensionless); higher = more cleavage of the substrate by the protease variant
Details: temperature: 34 °C; time window: 0-4 h after rhamnose induction
Method: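 In vivo DNA recorder in E. coli TOP10(DE3) ΔrhaA at 34 °C. Each TEVp single-site mutant (parent TEVp 0) is paired with a single-site variant of the 7-mer TEVs (canonical ENLYFQ|S). The substrate sits between flexible linkers in a Bxb1-sfGFP-TEVs-SsrA fusion, so cleavage stabilises Bxb1 and speeds flipping of a recombination array, read by NGS. The value is the raw area under the fraction-flipped curve over 0-4 h after rhamnose induction (AUC4h), with ≥20 reads per time point. It is not background-subtracted; inactive controls average about 0.047.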
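Also: Bxb1 expression induced with 0.2% (w/v) L-rhamnose at OD600 near 0.5, cultures sampled hourly, flipped fraction per protease–substrate barcode pair counted by paired-end Illumina sequencing.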

| Variant | area with substrate ENLYFES | area with substrate ENLYFFS | area with substrate ENLYFWS | area with substrate ENLYFYS | area with substrate ENLYFIS | area with substrate ENLYFRS | area with substrate ENLYFTS | area with substrate ENLYFGS | area with substrate ENLYFHS | area with substrate ENLYFKS |
| --- | --- | --- | --- | --- | --- | --- | --- | --- | --- | --- |
| F101D | 0.0438 | 0.0391 | 0.0544 | 0.0431 |  |  |  |  |  |  |
| F101Y | 0.0505 |  | 0.0543 |  | 0.0547 | 0.0558 | 0.0507 |  |  |  |
| P104Q | 0.0531 |  | 0.0381 |  |  |  |  | 0.0408 | 0.0416 | 0.0305 |
| T115V | 0.0591 | 0.07 |  | 0.0594 | 0.0566 |  | 0.0644 | 0.0613 | 0.05 | 0.0678 |
| M122S | 0.0661 | 0.0534 |  | 0.045 | 0.0283 |  | 0.0599 | 0.0675 |  | 0.0631 |
| T129M | 0.0541 | 0.0722 | 0.0525 |  | 0.053 | 0.0457 |  |  | 0.0583 |  |
| C131R | 0.0838 | 0.0816 |  |  | 0.0382 | 0.0481 | 0.0589 |  |  | 0.0673 |
| K142C | 0.0718 |  |  | 0.063 | 0.0562 | 0.058 | 0.0567 |  | 0.0571 |  |
| I145P | 0.0563 |  | 0.0815 |  |  | 0.0548 |  |  | 0.0532 |  |
| Q151F | 0.0601 |  |  |  |  |  | 0.0556 | 0.058 |  |  |
| T159A | 0.0579 | 0.0739 |  |  |  | 0.0581 |  |  | 0.0467 | 0.0675 |
| I164R | 0.0557 | 0.0561 | 0.051 | 0.0735 | 0.0487 | 0.0565 | 0.045 |  | 0.0541 | 0.0622 |
| F173R | 0.0774 |  | 0.0466 | 0.0456 |  |  |  |  |  | 0.0693 |
| F180A | 0.0652 |  | 0.0553 |  | 0.0658 | 0.0641 |  |  | 0.0771 | 0.0522 |
| F180R | 0.0543 | 0.0571 |  |  | 0.0483 | 0.0561 | 0.0475 |  | 0.0632 | 0.0471 |
| P184T | 0.0817 | 0.0687 | 0.0665 | 0.0551 | 0.0591 |  | 0.0538 |  | 0.0658 |  |
| N186C | 0.0697 | 0.0615 | 0.0444 | 0.0381 | 0.0569 |  | 0.0525 | 0.0806 | 0.0796 |  |
| N186K | 0.0741 | 0.0804 | 0.0456 |  | 0.0592 | 0.121 | 0.0853 |  |  | 0.0951 |
| W199I | 0.0549 | 0.059 |  |  | 0.0572 |  | 0.0529 |  |  | 0.0623 |
| S201Y | 0.0688 |  |  |  |  | 0.059 | 0.0366 |  | 0.0541 |  |
| A207L | 0.0482 | 0.0691 | 0.0591 |  | 0.0571 | 0.0425 |  |  |  |  |
| F218T | 0.0601 | 0.0665 | 0.0552 |  | 0.0402 | 0.0757 |  |  |  |  |
| F218Y | 0.0574 | 0.0559 | 0.0591 |  | 0.0483 | 0.0635 |  |  | 0.0804 | 0.0689 |

| Variant | area with substrate ENLYFES | area with substrate ENLYFFS | area with substrate ENLYFWS | area with substrate ENLYFYS | area with substrate ENLYFIS | area with substrate ENLYFRS | area with substrate ENLYFTS | area with substrate ENLYFGS | area with substrate ENLYFHS | area with substrate ENLYFKS |
| --- | --- | --- | --- | --- | --- | --- | --- | --- | --- | --- |
| P228A | 0.0641 |  | 0.0536 |  |  |  | 0.0554 |  |  |  |
| E231P | 0.0925 | 0.0575 |  | 0.0666 | 0.053 |  |  |  |  | 0.0445 |
| E231R | 0.0677 | 0.0762 | 0.0556 | 0.0387 | 0.0583 |  |  |  |  | 0.063 |
| L235G | 0.063 | 0.048 |  |  | 0.0441 | 0.0467 | 0.0621 |  |  |  |
| Y34K |  | 0.0794 |  |  | 0.0612 | 0.0684 |  |  |  |  |
| P93N |  | 0.0748 | 0.052 |  | 0.0635 |  |  |  |  | 0.0537 |
| P93Y |  | 0.0701 |  |  |  |  | 0.0611 |  |  |  |
| K100A |  | 0.0549 |  |  | 0.0399 | 0.0542 |  |  |  |  |
| T115S |  | 0.0691 | 0.0698 | 0.0521 | 0.0666 |  | 0.08 |  | 0.0682 | 0.0606 |
| T129E |  | 0.0628 |  |  | 0.0492 |  |  |  | 0.079 |  |
| C131Y |  | 0.0706 |  |  |  |  |  |  |  |  |
| T159F |  | 0.0772 |  |  | 0.0526 |  |  |  | 0.0558 | 0.0326 |
| N175V |  | 0.0725 | 0.0462 |  | 0.0522 | 0.0673 | 0.0597 | 0.0514 | 0.064 |  |
| P225S |  | 0.0489 |  |  | 0.0591 |  |  |  | 0.043 | 0.0971 |
| P228E |  | 0.0735 |  |  | 0.0546 | 0.0718 |  |  |  | 0.0872 |
| T114C |  |  |  | 0.0637 |  | 0.0644 |  | 0.0671 |  | 0.0592 |
| G213N |  |  |  |  |  |  | 0.0646 | 0.079 | 0.0571 |  |
| V58T |  |  |  |  |  |  |  |  | 0.0536 | 0.0587 |
| R87K |  |  |  |  |  |  |  |  | 0.0684 |  |
| I139H |  |  | 0.0553 |  | 0.0593 | 0.0706 | 0.0417 |  | 0.0636 | 0.0551 |
| F180Q |  |  |  |  |  |  |  |  | 0.0381 |  |
| K7E |  |  |  |  | 0.0607 | 0.0513 | 0.0593 |  |  | 0.0653 |

Same assay, conditions: temperature: 34 °C; time window: 0-4 h after rhamnose induction

| Variant | area with substrate ENLYFMS | area with substrate ENLYFPS | area with substrate ENLYFSS | area with substrate ENLYFLS | area with substrate ENLYFNS | area with substrate ENLYFVS |
| --- | --- | --- | --- | --- | --- | --- |
| P104Q | 0.0537 |  |  |  |  |  |
| T115V | 0.0658 | 0.0673 | 0.0786 |  |  |  |
| M122S | 0.0649 | 0.0793 |  | 0.0585 | 0.0567 |  |
| T129M | 0.0694 | 0.0553 |  | 0.0581 | 0.0583 | 0.0485 |
| C131R | 0.0596 | 0.0594 |  |  |  | 0.0499 |
| K142C | 0.0851 | 0.061 | 0.0651 |  | 0.0747 |  |
| I145P |  |  |  |  | 0.0607 |  |
| T159A | 0.0593 | 0.0717 |  | 0.0521 |  |  |
| I164R | 0.052 | 0.055 |  | 0.054 | 0.0565 |  |
| F173R | 0.051 | 0.057 |  | 0.0617 |  |  |
| F180A | 0.0732 | 0.0585 |  | 0.0746 |  |  |
| F180R |  | 0.0482 | 0.0532 |  | 0.0515 | 0.0456 |
| P184T | 0.0771 | 0.0703 | 0.0482 |  |  |  |
| N186C | 0.0648 | 0.0526 |  |  |  |  |
| N186K |  | 0.0689 |  |  |  |  |
| W199I | 0.0555 | 0.045 |  |  | 0.0651 |  |
| S201Y | 0.0566 | 0.0636 |  |  | 0.0596 | 0.0562 |
| A207L | 0.0636 | 0.0627 | 0.0595 |  |  |  |
| F218T | 0.0505 | 0.0416 |  | 0.0173 |  |  |
| F218Y | 0.0502 |  | 0.0574 |  |  |  |

| Variant | area with substrate ENLYFMS | area with substrate ENLYFPS | area with substrate ENLYFSS | area with substrate ENLYFLS | area with substrate ENLYFNS | area with substrate ENLYFVS |
| --- | --- | --- | --- | --- | --- | --- |
| P228A |  | 0.0601 |  |  |  | 0.0613 |
| E231P | 0.0804 | 0.0608 | 0.0577 |  | 0.0464 |  |
| E231R | 0.0697 | 0.0481 | 0.0406 | 0.0469 | 0.0707 | 0.0593 |
| L235G | 0.0634 |  |  |  |  | 0.0598 |
| Y34K |  | 0.0556 | 0.069 |  | 0.0561 | 0.0441 |
| P93N |  | 0.0616 |  |  |  |  |
| P93Y |  |  |  |  | 0.0624 |  |
| K100A | 0.0674 | 0.0371 |  |  |  |  |
| T115S | 0.0614 | 0.0631 |  |  | 0.0538 | 0.0642 |
| T129E | 0.0698 |  |  |  | 0.0505 |  |
| T159F | 0.063 | 0.0669 |  |  | 0.0624 |  |
| N175V |  | 0.0554 | 0.0517 |  |  |  |
| P225S |  | 0.0636 |  |  |  | 0.0363 |
| P228E | 0.0682 | 0.044 | 0.0746 | 0.0738 |  | 0.0655 |
| T114C |  | 0.0697 |  |  |  |  |
| V58T |  |  |  |  | 0.0538 |  |
| I139H | 0.0399 | 0.0553 |  | 0.0337 | 0.0674 |  |
| F180Q | 0.0589 | 0.0617 |  |  |  |  |
| K7E | 0.0751 |  |  |  |  |  |
